# Measurements: PMC12136788
# The list shows a part of the results.
# B1: chr7:94910433:94910544:+|CDS|ENSG00000158528|unk|FALSE|bound_elsewhere (ssRNA)
# RNA: GGGAGUUCUACAGUCCGACGAUCCUGGAAAAAACAGAUGGCUCAGUUGUUAAGUUGGAGUCUUCUGUUUCUGAACGAAUUAGUAGAUUUGACACUAUGUACGAUGGCCCUUCAUAUUCCAAGUUCACUGAGACUCGAAAGAUGCAACAGAGGAUUGAGCAUCA
# B2: chr6:143501988:143502101:-|CDS|ENSG00000001036|unk|total|mutant (ssRNA)
# RNA: GGGAGUUCUACAGUCCGACGAUCUUCAUGUGGAGGAAAUCUUUUGAUGAAUAUUGGGCCCACACCCGAUGGCACCAUUUCUGCCGUUUUUGAGGAGCGACUGAGGCAAAUGGGGUCCUGGCUAAAAGUCAAUGGAGAAGCUAUCAACAGAGGAUUGAGCAUCA
# B3: chr9:33053202:33053303:-|CDS|ENSG00000122692|msi1|total|mutant (ssRNA)
# RNA: GGGAGUUCUACAGUCCGACGAUCCCUAAAACUUCCGAAAUUUUUAUACCUAAAAAAGGUUUAUAACUUAAAUUUCUGUGUGGCCGAUCUGGAAUAUGAAGACCACAGAAUGUUCAAAUACCUUUAAAUCCCUGGGCAGCACCGCAACAGAGGAUUGAGCAUCA
# B4: chr7:44064065:44064166:+|3pUTR|ENSG00000136279|msi1|FALSE|unique (ssRNA)
# RNA: GGGAGUUCUACAGUCCGACGAUCGCACACCCUUCUAGCCUUUCCAGGACUCAACAAGCUUUAAGGUCAUUCAGAUGCUAAUUUAGACUGCCCUUGUGUCAGAAUACUAAGGUGGGAGGCGGAGCGGAGGUGCCAGUCACUCUGCAACAGAGGAUUGAGCAUCA
# B5: ENSG00000136451:be:win_3451|3pUTR|ENSG00000136451|bound_else_gene|NA|bound_elsewhere_windowed (ssRNA)
# RNA: GGGAGUUCUACAGUCCGACGAUCCAAAAUGUAGAGAAAAAUAUGUAGCUAUGACUUUGUUACAACUGUUCUUAUCCACAGUACAAAAAUGGUUUGUUUUUAAUAUGUAGAGCAUUAUGUGUGGACUACUGGAAGGACUCGUGUCAACAGAGGAUUGAGCAUCA
# B6: chr15:49876277:49876523:-|three_prime_utr|ENSG00000104043|control|control|control (ssRNA)
# RNA: GGGAGUUCUACAGUCCGACGAUCUCUGCUUUUUAACAAGCGUAAAUUUUUCAUUUGCGUGUUGCAUGGAAUCUACACCUCAUUAGUCCUUUUCUUCAUCCCCUAUGGGGCCUUUUACAACGUGGCUGGAGAAGAUGGGCAACACAACAGAGGAUUGAGCAUCA
# B7: ENSG00000107863:be:win_2551|CDS|ENSG00000107863|bound_else_gene|NA|bound_elsewhere_windowed (ssRNA)
# RNA: GGGAGUUCUACAGUCCGACGAUCUUAAUUCGCCGUCAGCUCUCACAUGACCACGAAUCUGUUGGCCCUCCUAGCCUGGAUGCUCAGCCCAACUCAAAGACAGAAAGAUCAAAAUCAUAUGAUGAGGGUCUGGAUGAUUACAGACAACAGAGGAUUGAGCAUCA
# B8: chr2:27781378:27781788:-|three_prime_utr|ENSG00000171174|control|control|control (ssRNA)
# RNA: GGGAGUUCUACAGUCCGACGAUCAACACAGUCAUCUUACCCUUACAAAAAAGACCUUCCGCUUACUCUGUUUUGAUUGCUAUUAGUCCCAAAAUAAAUAUACCUGGGAAUAAAAUGUACUUGGGGGUGGCUGCUCCUGGCUAACAACAGAGGAUUGAGCAUCA
# B9: chr5:78475949:78476050:+|3pUTR|ENSG00000085365|msi1|FALSE|unique (ssRNA)
# RNA: GGGAGUUCUACAGUCCGACGAUCACCCACUGAAAAUUAAUAAUGGUACUUAUGAUUAAAAACGCAUUUAAUACUAACUGCAGUAGUUCUUUCAAGAAUCUUUAGAGAUAAGGAUUGCACAUUGGAAAAGUAAACCAUGUUUCACAACAGAGGAUUGAGCAUCA
# B10: chr12:133204733:133204837:+|3pUTR|ENSG00000090612|unk|total|mutant (ssRNA)
# RNA: GGGAGUUCUACAGUCCGACGAUCCAAAAAGACCGCCGACAAUACACAGGAAAACUGAAUUCCGUAACCACUCUGAAAAUUUUCCGCAGCAAGUCAUACCUUUUUUUAAAAAGUUCAUACAGGUGAGGAACCAUGUUAAACGUUCAACAGAGGAUUGAGCAUCA
# B11: chr11:134151495:134151596:+|3pUTR|ENSG00000166086|unk|FALSE|unique (ssRNA)
# RNA: GGGAGUUCUACAGUCCGACGAUCUAGUGCCAUGGGAACCAGGUCUGAAAAAGUAGAGAGAAGUGAAAGUAGAGUCUGGGAAGUAGCUGCCUAUAACUGAGACUAGACGGAAAAGGAAUACUCGUGUAUUUUAAGAUAUGAAUGCAACAGAGGAUUGAGCAUCA
# B12: ENSG00000107863:be:win_6251|3pUTR|ENSG00000107863|bound_else_gene|NA|bound_elsewhere_windowed (ssRNA)
# RNA: GGGAGUUCUACAGUCCGACGAUCUAUUGUUAAAAUUAGAUAACUUACUUACAUUGAAUAAACGAAUGCGUUUUAUUGGUAACAGAUAUCAUUACAUUUACCAGUUUUAACACAGGUGGAUACAGAACUUCCAUUCUUUAGUCACAACAGAGGAUUGAGCAUCA
# B13: chr1:180885099:180885158:+|3pUTR|ENSG00000143324|msi1_unk|total|mutant (ssRNA)
# RNA: GGGAGUUCUACAGUCCGACGAUCAGCUGAAGCUAUGCCUUAUUAUGCAUCCACAUGUAUGGUCCCUGCCGCGUGACCUUUACCCGCUCUGAAUCAGAAGACAGAGCUAUUUCAGAGGCUCUGUGUGCCCUCACCCGACCGUUUCAACAGAGGAUUGAGCAUCA
# B14: chr5:24509697:24509799:-|CDS|ENSG00000040731|unk|total|mutant (ssRNA)
# RNA: GGGAGUUCUACAGUCCGACGAUCACUCGACUAUGAGAGCCGAAGACUUUAUACUCUGAAAGUCGAAGCAGAAAACACCCAUGCCGAUCCCCGUUUUUAUUACCCCGGACCAUUUAAAGAUACUACCACCGUGAAAAUCUCUAUCAACAGAGGAUUGAGCAUCA
# B15: chr14:70725571:70725672:-|3pUTR|ENSG00000006432|unk|total|mutant (ssRNA)
# RNA: GGGAGUUCUACAGUCCGACGAUCUAUUGUCCGAAACGCAUUACCAAAUGCAUCUCUUCUGUCGGAUCAGCGUAUUCCCCGAUCCGGAAUUCAAAUUAAUGAAAAUUCACAUAUGAAAGGAAAAUCCAUUGCUAUUUCUGGAGACAACAGAGGAUUGAGCAUCA
# B16: chr1:150144965:150145066:+|3pUTR|ENSG00000136631|msi1|total|mutant (ssRNA)
# RNA: GGGAGUUCUACAGUCCGACGAUCAGACUCCCAGAGUUGUCCUAACAAUAAGUCUGAGCCCAUCUCAACCCACUUUUCUCCGGCCGUCUUUAUGUAUCUGUCCGCACAAUCACUUCAGUUACUGAUGAAUUUUGUUGGGAUCUGCAACAGAGGAUUGAGCAUCA
# B17: chr19:45224777:45224913:-|CDS|ENSG00000283632|control|control|control (ssRNA)
# RNA: GGGAGUUCUACAGUCCGACGAUCGCCGAGCGCCUGGCCCGGGUGGGGCCCCCAGAAAGCGAGCCGGCCCGGGAAGCAUCUGCUAGUGCUCUGGACCAUGUGACCCGGCUCUGCCACCGUGUCGUGGCCAACCUGCUGUUCCAGCAACAGAGGAUUGAGCAUCA
# B18: chrX:155122998:155123099:+|3pUTR|ENSG00000185515|unk|total|mutant (ssRNA)
# RNA: GGGAGUUCUACAGUCCGACGAUCCUACAUACACACAAAUGAAUGCAUGUAAAAUCUGGUGAUACUGAAUAAAGUCUGUGGUCCCGACCGCAGUAUAAUAUUAUUGUCAAUGUCUUGGAUGUGAAGUUGUGCUACCGUUACAAACAACAGAGGAUUGAGCAUCA
# B19: chr12:56416428:56416529:-|3pUTR|ENSG00000111602|msi1|FALSE|unique (ssRNA)
# RNA: GGGAGUUCUACAGUCCGACGAUCAUGUUCUUACCCAUUCUUGGAAACGUCAGCUUUCUUGCUUCCUGUGCUUCCAGCCGAGGUAGGGCAAAGGUGAGAUUGAGAAAAUAGCCAUUCAGCUCAGGAAGGCUUCUAAGUAAAGGACAACAGAGGAUUGAGCAUCA
# B20: chr9:72354534:72354635:-|3pUTR|ENSG00000107372|msi1|FALSE|unique (ssRNA)
# RNA: GGGAGUUCUACAGUCCGACGAUCGUCCUAGUUUUUACUUUUAUUCUUAAAGCAUUCAGUUUUGCUUUCAAUUUUAUGUACCUUAGUUCUGAGUUAGACCUGCAGAUGUGUACAGAUAGUUCAUAUUUAUGUAUUGCACAUAAUCAACAGAGGAUUGAGCAUCA
# B21: ENSG00000124766:be:win_2351|3pUTR|ENSG00000124766|bound_else_gene|NA|bound_elsewhere_windowed (ssRNA)
# RNA: GGGAGUUCUACAGUCCGACGAUCCAGACCCCGGAGGCGUGGAGGAGAGGAGACUGUUUGAUGUGGUACAGGGGCAGUCAGUGGAGGGCGAGUGGUUUCGGAAAAAAAAAAAGAAAAAAAGAAAAAAAAAGAAAAAAAAAAGAUCAACAGAGGAUUGAGCAUCA
# B22: chr21:44851366:44851434:-|CDS_3pUTR|ENSG00000183255|msi1_unk|total|mutant (ssRNA)
# RNA: GGGAGUUCUACAGUCCGACGAUCAGGACAGUCCUCUCGUCUUGCAGACUGGUGACCUUCUAUUCCCUGUUCAUCUCUGUUUCCCGAUUCCGUCACUUGAAAUAAGAAAUCUUUGGGGUUUGGGCUUUUUUAUACUCUUCUCAGCAACAGAGGAUUGAGCAUCA
# Target: MSI1 full-length (mouse, UniProt Q61474 1-362)
# Chain of UniProt Q61474 (Q61474 whole entry): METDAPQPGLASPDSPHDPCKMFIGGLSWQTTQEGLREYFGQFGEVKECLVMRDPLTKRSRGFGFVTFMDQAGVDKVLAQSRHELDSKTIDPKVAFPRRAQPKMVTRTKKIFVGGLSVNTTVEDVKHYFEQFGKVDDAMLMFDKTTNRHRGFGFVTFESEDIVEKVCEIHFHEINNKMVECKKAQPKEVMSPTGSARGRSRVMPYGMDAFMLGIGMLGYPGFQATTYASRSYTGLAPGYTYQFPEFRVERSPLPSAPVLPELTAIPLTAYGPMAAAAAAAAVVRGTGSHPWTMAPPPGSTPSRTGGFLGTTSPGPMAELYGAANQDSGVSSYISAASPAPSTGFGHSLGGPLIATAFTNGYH
# Test: nsRBNS (natural sequence RNA bind-n-seq); RBNS binding buffer (assumed for nsRBNS): 25 mM Tris pH 7.5, 150 mM KCl, 3 mM MgCl2, 0.01% Triton X-100, 500 ug/ml BSA, 20 U/ml SUPERase-In, 4 C; UNK is unkempt and MSI1 is Musashi-1; names of the RNAs are library labels; protein concentration not given here; high values mean tight binding
row,Binder,binding signal [enrichment R]
1,B1,0.762
2,B2,0.472
3,B3,0.369
4,B4,0.56
5,B5,1.21
6,B6,0.455
7,B7,0.342
8,B8,1.19
9,B9,1.73
10,B10,0.224
11,B11,2.72
12,B12,1.83
13,B13,0.335
14,B14,0.458
15,B15,0.227
16,B16,0.571
17,B17,0.572
18,B18,0.194
19,B19,0.454
20,B20,42.6
21,B21,0.761
22,B22,0.45
